# PubChem BioAssay AID540317 (National Center for Advancing Translational Sciences (NCATS), 2011)
# Hit rate of the full screen: of about 390,000 compounds, about 2,200 (0.56%) were called active. The shares of active, inactive and inconclusive entries below differ from those in the screen. Calls follow the shape of the dose curve; as a rule, active = well fitted inhibition curve with a large enough effect; inconclusive = small, poorly fitted or top-dose-only effect; inactive = no such curve, though single readings can be large or run the other way. Where the call is inconclusive, the potency comes from a doubtful curve fit.
# Biological target: Chromobox protein homolog 1 (Homo sapiens) (UniProt P83916)
# Chain of UniProt P83916 (P83916 whole entry, looked up): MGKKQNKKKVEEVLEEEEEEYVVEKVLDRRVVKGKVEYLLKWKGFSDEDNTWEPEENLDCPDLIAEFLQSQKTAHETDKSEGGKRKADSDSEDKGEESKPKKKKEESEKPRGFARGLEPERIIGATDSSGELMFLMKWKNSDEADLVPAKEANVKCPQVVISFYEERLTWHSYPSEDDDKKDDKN
# Assay: HTS for Inhibitors of HP1-beta Chromodomain Interactions with Methylated Histone Tails; also: nearly all actives have a fitted effect of over 70% in size
# Details: AlphaScreen HP1-beta / biotin-H3K9me3 peptide binding; series mostly up to 114 µM; activity change, negative = inhibition: at the top concentration
# How it was run: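 Compound inhibition of the preformed complex between 50 nM HP1-beta and 50 nM biotinylated H3K9me3 peptide was read by AlphaScreen. Buffer was PBS pH 7.4 with 0.01% Tween-20. Incubations ran 30 min at room temperature, with 10 ug/mL donor/acceptor beads.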
# Potency is read from the fitted curve at half-maximal effect; tags tell the direction and shape of the fitted curve.
SMILES,Potency,"activity change, negative = inhibition"
C/C(=N\Nc1ccccc1Cl)c1ccc(-n2ccnc2)cc1,"inconclusive: 79.4 µM [inhibitor, partial curve]",
CCCCOC(=O)Nc1ccc(N(C)C)cc1,"inconclusive: 39.8 µM [inhibitor, partial curve]",
COc1cccc(N=Nc2ccc3ccccc3c2O)c1,"inconclusive: 2 µM [inhibitor, full curve, poor fit]",
O=C(/C=C/c1ccccc1Cl)c1ccc(O)cc1,,inactive: -37.5%
CCn1cc(C(=O)OCC(=O)c2ccc(Cl)cc2)c(=O)c2ccc(C)nc21,"inconclusive: 89.1 µM [inhibitor, single point]",
O=C(NCCNc1ccc(Cl)cc1[N+](=O)[O-])c1cccnc1,,inactive: -5.6%
COc1cc(OC)c(NS(=O)(=O)c2cccc(C(=O)OCC(=O)NCC3CCCO3)c2)cc1Cl (configuration not stated),,inactive: 37.3%
O=C(CSc1ccsc1[N+](=O)[O-])Nc1cccc(F)c1,"inconclusive: 28.2 µM [inhibitor, partial curve]",
CCOc1cccc(-c2cc(C(=O)N/N=C/c3ccc(OC)c(CN4CCOCC4)c3)c3ccccc3n2)c1,"inconclusive: 39.8 µM [inhibitor, partial curve, poor fit]",
Cc1cc(N2CCCCC2)nc2ccc(NC(=O)c3ccc(Br)o3)cc12,"inconclusive: 8.91 µM [inhibitor, partial curve]",
COc1cc(-c2nc3nc[nH]n3c2Nc2ccc(C(C)C)cc2)ccc1O,"inconclusive: 35.5 µM [inhibitor, partial curve]",
Cc1ccc(N(C(=O)CNC(=O)c2ccco2)C(C(=O)NC2CCCCC2)c2cccnc2)c(C)c1 (configuration not stated),"inconclusive: 89.1 µM [inhibitor, single point]",
COc1ccc(CCNCCN2CCOCC2)cc1,"inconclusive: 28.2 µM [inhibitor, single point]",
Clc1ccccc1-c1nn2c(-c3ccncc3)nnc2s1,"inconclusive: 17.8 µM [inhibitor, full curve]",
Clc1ccc(C(c2ccccc2)N2CCN(c3ccccn3)CC2)cc1 (configuration not stated),,inactive: -12.5%
CC(c1ccccc1)n1c(N2CCNCC2)nc2c1c(=O)[nH]c(=O)n2C (configuration not stated),,inactive: 24.2%
Cc1cccc(Nc2nc(N)c([N+](=O)[O-])c(N3CCC(C)CC3)n2)c1,"inconclusive: 50.1 µM [inhibitor, partial curve]",
COc1ccc(-c2cc(C(=O)N3CCN(c4ncccn4)CC3)c3ccccc3n2)cc1,,inactive: 44.7%
Cc1ccc(N/N=C2/CCCNC2=O)cc1,"inconclusive: 89.1 µM [inhibitor, partial curve, poor fit]",
Nc1ccccc1N=Nc1ccccc1N,"inconclusive: 35.5 µM [inhibitor, partial curve]",
Cc1ccccc1OCC(=O)Nc1ccc2c(c1)ncn2C,"inconclusive: 89.1 µM [inhibitor, single point]",
N#C/C(=C\c1c(N(Cc2ccccc2)Cc2ccccc2)nc2ccccn2c1=O)C(N)=O,"inconclusive: 79.4 µM [inhibitor, single point]",
O=C(O)c1ccc(C2CCCCC2)cn1,,inactive: 36%
O=C(COC(=O)c1ccc2c(c1)C(=O)N(c1cccc3ncccc13)C2=O)c1ccc(Cl)cc1,,inactive: 38.1%

SMILES,Potency,"activity change, negative = inhibition"
O=S1(=O)N=C(N(CCO)/N=C/c2ccncc2)c2ccccc21,,inactive: -7.29%
O=C(c1cccc([N+](=O)[O-])c1)N1CCN(c2cccc(Cl)c2)CC1,"inconclusive: 31.6 µM [inhibitor, single point]",
COc1ccc(-n2c(C)n[nH]c2=O)cc1,,inactive: 5.37%
O=C(O)c1cc2cc(Cl)cc(Cl)c2oc1=O,,inactive: -6.36%
Oc1ccc(COCc2ccccc2)c2cccnc12,,inactive: 44.7%
Cc1ccc(N=C2NC(=O)/C(=C/c3cn(C)c4ccccc34)S2)cc1C,"inconclusive: 31.6 µM [inhibitor, partial curve, poor fit]",
O=C(O)CCCN(Cc1cccc(Br)c1)S(=O)(=O)c1ccc(Br)cc1,,inactive: 22.7%
Cc1ccccc1-c1nc(C#N)c(N2CCC(C)CC2)o1,"inconclusive: 20 µM [inhibitor, full curve]",
Cc1cc2c3c(c1)C(C)CC(C)(C)N3C(=O)C2=O (configuration not stated),"inconclusive: 79.4 µM [inhibitor, single point]",
C=C(C)C(=O)Nc1cccc(C2=NOC3(C2)C[C@@H](C(N)=O)N(C(=O)c2ccc(OC)cc2)C3)c1 (some centres not stated),active: 3.16 µM,
COc1cccc(CC(=O)Nc2sc3c(c2C(N)=O)CCCC3)c1,,inactive: 20.5%
C=CCNc1nc(Nc2ccc(OC)cc2OC)nc(OCC)n1,"inconclusive: 89.1 µM [inhibitor, partial curve, poor fit]",
CCOC(=O)c1[nH]cnc1C(=O)Nc1ccc([N+](=O)[O-])cc1,,inactive: 14.4%
Cc1cc(C)cc(NC(=O)CCC(=O)N2Cc3ccccc3Oc3ncccc32)c1,"inconclusive: 15.8 µM [inhibitor, partial curve]",
CC(=O)N(C(C)=O)N1C(=O)/C(=C/c2ccc(Cl)cc2)SC1=S,active: 10 µM,
CN(C)c1ccc(C(C(=O)NC2CCCCC2)N(Cc2ccco2)C(=O)c2snc(C(N)=O)c2N)cc1 (configuration not stated),"inconclusive: 50.1 µM [inhibitor, partial curve]",
COCCNC(=O)CCc1nnc2ccc(N3CCC(C)CC3)nn12,,inactive: 27.8%
CC1CN(CCOc2cccc(Oc3ccccc3)c2)CC(C)O1 (configuration not stated),"inconclusive: 14.1 µM [inhibitor, partial curve, poor fit]",
COc1cccc(C2CC(c3ccc(Cl)cc3Cl)Nc3nc(N)nn32)c1 (configuration not stated),"inconclusive: 79.4 µM [inhibitor, single point]",
CCC1CCCCN1C(=O)CSc1nc2ncccc2[nH]1 (configuration not stated),"inconclusive: 31.6 µM [inhibitor, partial curve, poor fit]",
Cc1ccc(N2CCN(c3ccc(C)cc3)C2c2ccncc2)cc1,"inconclusive: 70.8 µM [inhibitor, partial curve]",
CCc1ccc(C(=O)c2cn(CC(=O)Nc3ccc(F)c(F)c3)c3cc(OC)c(OC)cc3c2=O)cc1,,inactive: 12.2%
CC(=O)c1ccc(OCC(=O)Nc2ccc(N3CCCCC3)cc2)cc1,"inconclusive: 35.5 µM [inhibitor, partial curve, poor fit]",
Cc1ccc(NCc2nnc(SCC(=O)OC3CCCCC3)o2)c(C)c1,"inconclusive: 31.6 µM [inhibitor, partial curve, poor fit]",

SMILES,Potency,"activity change, negative = inhibition"
Cc1cc(OCC(=O)Nc2ccc(-c3nc4cc(Cl)ccc4o3)cc2)cc(C)c1Cl,,inactive: 13.8%
Cc1ncc(N=Nc2ccccc2)c(-c2ccccc2)n1,active: 31.6 µM,
CCN1CCN(CC2CC3C=CC2C3)CC1 (configuration not stated),"inconclusive: 56.2 µM [inhibitor, single point]",
COc1cc2c(OC(C)=O)c3c(c(-c4ccc5c(c4)OCO5)c2cc1OC)C(=O)OC3,"inconclusive: 100 µM [inhibitor, single point]",
CCn1c(COc2ccccc2C)nnc1SCC(=O)Nc1ccc2c(c1)OCCO2,,inactive: 26.2%
O=C(c1ccco1)N1CCN(Cc2ccccc2F)CC1,"inconclusive: 39.8 µM [inhibitor, partial curve]",
O=C(Nc1cccc(O)c1)C1CCCN1C(=O)OCc1ccccc1 (configuration not stated),,inactive: 42.1%
Cc1ccc(C(=O)N2CCC(C)CC2)cc1C,,inactive: 17.8%
CCn1c(N)c(C(=O)NCc2ccco2)sc1=S,"inconclusive: 28.2 µM [inhibitor, partial curve]",
O=C1c2ccccc2C(=O)N1CCSc1n[nH]c(=S)s1,"inconclusive: 89.1 µM [inhibitor, single point]",
Cc1ccc(CN2CCN(/N=C\C(Br)=C\c3ccccc3)CC2)cc1,"inconclusive: 35.5 µM [inhibitor, partial curve]",
O=C(CSc1nc(-c2ccccc2)cc(C(F)(F)F)n1)N1CCOCC1,"inconclusive: 35.5 µM [inhibitor, single point]",
O=C1CN(C(=S)NC(=O)c2ccccc2[N+](=O)[O-])CCN1,"inconclusive: 79.4 µM [inhibitor, single point]",
O=C(c1cccc(Cl)c1)N1CCN(Cc2ccc3c(c2)OCO3)CC1,,inactive: 7.07%
O=C(Nc1ccc(-c2cn3ccsc3n2)cc1)C1COc2ccccc2O1 (configuration not stated),"inconclusive: 31.6 µM [inhibitor, partial curve, poor fit]",
CN(C)c1ccc(NC(=O)COC(=O)c2ccc3c(c2)OCO3)cc1,"inconclusive: 44.7 µM [inhibitor, partial curve]",
CCOC(=O)CCCc1ccc(/C(C)=N/NC(=S)NC)cc1,"inconclusive: 25.1 µM [inhibitor, single point]",
O=C(CCN1C(=O)/C(=C/c2cccs2)SC1=S)N1CCCCC1,"inconclusive: 14.1 µM [inhibitor, full curve]",
O=C(Nc1ccc(Br)cc1F)c1cc(S(=O)(=O)NCc2ccc(F)cc2)ccc1F,,inactive: 17.7%
Cc1ccccc1OCC(=O)N/N=C/c1cccc2cccnc12,,inactive: 14.5%
CC(C(=O)Nc1ccccc1C(=O)N1CCOCC1)N(c1ccccc1)S(C)(=O)=O (configuration not stated),"inconclusive: 39.8 µM [inhibitor, single point]",
COC(=O)c1ccc(NC(=O)CSc2ccccc2)cc1,"inconclusive: 39.8 µM [inhibitor, single point]",
Cc1c2cc[n+](CCN3CCCCC3)cc2c(C)c2c1[nH]c1ccc(O)cc12,"inconclusive: 56.2 µM [inhibitor, partial curve, poor fit]",
CCOc1ccc(OCCN(C)Cc2ccccc2)cc1,"inconclusive: 22.4 µM [inhibitor, partial curve, poor fit]",
